Laboratory results reported in the supplement of paper PMC8728848.
This is one part of the list.

Experiments:
Assay in all cases: glycan array binding signal (z-score within array); higher = stronger binding
Settings in all cases: glycan notation: IUPAC condensed, linker removed
[1] = biological target: Neu5Ac(a2-6)Gal(b1-4)GlcNAc(b1-2)Man(a1-3)[Man(a1-6)]Man(b1-4)GlcNAc(b1-4)GlcNAc
How it was run: (§1)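 Negative Z-scores can be read as non-binding. The Z-score is calculated within each array and then averaged across arrays of one protein sequence at different concentrations or buffers and across linkers. Arrays, 3228 in all, were curated from the Consortium for Functional Glycomics database and kept only where the protein sequence was available.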

[2] = biological target: Neu5Ac(a2-6)Gal(b1-4)GlcNAc(b1-2)Man(a1-3)[Neu5Ac(a2-3)Gal(b1-4)GlcNAc(b1-2)Man(a1-6)]Man(b1-4)GlcNAc(b1-4)GlcNAc
How it was run: as §1

[3] = biological target: Neu5Ac(a2-6)Gal(b1-4)GlcNAc(b1-2)Man(a1-3)[Neu5Ac(a2-6)Gal(b1-4)GlcNAc(b1-2)Man(a1-6)]Man(b1-4)GlcNAc(b1-4)GlcNAc
How it was run: as §1

[4] = biological target: Neu5Ac(a2-6)Gal(b1-4)GlcNAc(b1-2)Man(a1-3)[Neu5Ac(a2-6)Gal(b1-4)GlcNAc(b1-2)Man(a1-6)]Man(b1-4)GlcNAc(b1-4)[Fuc(a1-6)]GlcNAc
How it was run: as §1

[5] = biological target: Neu5Ac(a2-6)Gal(b1-4)GlcNAc(b1-2)Man(a1-6)Man(b1-4)GlcNAc(b1-4)GlcNAc
How it was run: as §1

[6] = biological target: Neu5Ac(a2-6)Gal(b1-4)GlcNAc(b1-2)Man(a1-6)[Gal(b1-4)GlcNAc(b1-2)Man(a1-3)]Man(b1-4)GlcNAc(b1-4)GlcNAc
How it was run: as §1

[7] = biological target: Neu5Ac(a2-6)Gal(b1-4)GlcNAc(b1-2)Man(a1-6)[GlcNAc(b1-2)Man(a1-3)]Man(b1-4)GlcNAc(b1-4)GlcNAc
How it was run: as §1

[8] = biological target: Neu5Ac(a2-6)Gal(b1-4)GlcNAc(b1-2)Man(a1-6)[Man(a1-3)]Man(b1-4)GlcNAc(b1-4)GlcNAc
How it was run: as §1

[9] = biological target: Neu5Ac(a2-6)Gal(b1-4)GlcNAc(b1-2)[Neu5Ac(a2-6)Gal(b1-4)GlcNAc(b1-4)]Man(a1-3)[GlcNAc(b1-4)][Neu5Ac(a2-6)Gal(b1-4)GlcNAc(b1-2)[Neu5Ac(a2-6)Gal(b1-4)GlcNAc(b1-6)]Man(a1-6)]Man(b1-4)GlcNAc(b1-4)GlcNAc
How it was run: as §1

[10] = biological target: Neu5Ac(a2-6)Gal(b1-4)GlcNAc(b1-2)[Neu5Ac(a2-6)Gal(b1-4)GlcNAc(b1-4)]Man(a1-3)[GlcNAc(b1-4)][Neu5Ac(a2-6)Gal(b1-4)GlcNAc(b1-4)Man(a1-6)]Man(b1-4)GlcNAc(b1-4)GlcNAc
How it was run: as §1

[11] = biological target: Neu5Ac(a2-6)Gal(b1-4)GlcNAc(b1-2)[Neu5Ac(a2-6)Gal(b1-4)GlcNAc(b1-6)]Man(a1-6)[Neu5Ac(a2-6)Gal(b1-4)GlcNAc(b1-2)Man(a1-3)][GlcNAc(b1-4)]Man(b1-4)GlcNAc(b1-4)GlcNAc
How it was run: as §1

[12] = biological target: Neu5Ac(a2-6)Gal(b1-4)GlcNAc(b1-3)Gal(b1-3)GlcNAc
How it was run: as §1

[13] = biological target: Neu5Ac(a2-6)Gal(b1-4)GlcNAc(b1-3)Gal(b1-4)GlcNAc
How it was run: as §1

[14] = biological target: Neu5Ac(a2-6)Gal(b1-4)GlcNAc(b1-3)Gal(b1-4)GlcNAc(b1-2)Man(a1-3)[Neu5Ac(a2-6)Gal(b1-4)GlcNAc(b1-3)Gal(b1-4)GlcNAc(b1-2)Man(a1-6)]GalNAc
How it was run: as §1

[15] = biological target: Neu5Ac(a2-6)Gal(b1-4)GlcNAc(b1-3)Gal(b1-4)GlcNAc(b1-3)Gal(b1-4)GlcNAc
How it was run: as §1

[16] = biological target: Neu5Ac(a2-6)Gal(b1-4)GlcNAc(b1-3)Gal(b1-4)GlcNAc(b1-3)Gal(b1-4)GlcNAc(b1-2)Man(a1-3)[Neu5Ac(a2-6)Gal(b1-4)GlcNAc(b1-3)Gal(b1-4)GlcNAc(b1-3)Gal(b1-4)GlcNAc(b1-2)Man(a1-6)]GalNAc
How it was run: as §1

[17] = biological target: Neu5Ac(a2-6)Gal(b1-4)GlcNAc(b1-3)Gal(b1-4)GlcNAc(b1-3)GalNAc
How it was run: as §1

[18] = biological target: Neu5Ac(a2-6)Gal(b1-4)GlcNAc(b1-3)Gal(b1-4)GlcNAc(b1-3)[Neu5Ac(a2-6)Gal(b1-4)GlcNAc(b1-3)Gal(b1-4)GlcNAc(b1-6)]GalNAc
How it was run: as §1

[19] = biological target: Neu5Ac(a2-6)Gal(b1-4)GlcNAc(b1-3)Gal(b1-4)GlcNAc(b1-6)[Gal(b1-3)]GalNAc
How it was run: as §1

[20] = biological target: Neu5Ac(a2-6)Gal(b1-4)GlcNAc(b1-3)Gal(b1-4)[Fuc(a1-3)]GlcNAc(b1-3)Gal(b1-4)[Fuc(a1-3)]GlcNAc
How it was run: as §1

[21] = biological target: Neu5Ac(a2-6)Gal(b1-4)GlcNAc(b1-3)GalNAc
How it was run: as §1

[22] = biological target: Neu5Ac(a2-6)Gal(b1-4)GlcNAc(b1-3)[Neu5Ac(a2-6)Gal(b1-4)GlcNAc(b1-6)]GalNAc
How it was run: as §1

[23] = biological target: Neu5Ac(a2-6)Gal(b1-4)GlcNAc(b1-6)GalNAc
How it was run: as §1

[24] = biological target: Neu5Ac(a2-6)Gal(b1-4)GlcNAc(b1-6)[Gal(b1-3)GlcNAc(b1-3)]Gal(b1-4)Glc
How it was run: as §1

[25] = biological target: Neu5Ac(a2-6)Gal(b1-4)GlcNAc(b1-6)[Gal(b1-3)]GalNAc
How it was run: as §1

[26] = biological target: Neu5Ac(a2-6)Gal(b1-4)GlcNAc6S
How it was run: as §1

[27] = biological target: Neu5Ac(a2-6)GalNAc
How it was run: as §1

[28] = biological target: Neu5Ac(a2-6)GalNAc(b1-4)GlcNAc
How it was run: as §1

[29] = biological target: Neu5Ac(a2-6)GalNAc(b1-4)GlcNAc6S
How it was run: as §1

[30] = biological target: Neu5Ac(a2-6)GlcNAc(b1-4)GlcNAc
How it was run: as §1

[31] = biological target: Neu5Ac(a2-6)GlcNAc(b1-4)GlcNAc(b1-4)GlcNAc
How it was run: as §1

B1: GNA (Galanthus nivalis), P30617 (protein)
chain: MAKASLLILAAIFLGVITPSCLSDNILYSGETLSTGEFLNYGSFVFIMQEDCNLVLYDVDKPIWATNTGGLSRSCFLSMQTDGNLVVYNPSNKPIWASNTGGQNGNYVCILQKDRNVVIYGTDRWATGTHTGLVGIPASPPSEKYPTAGKIKLVTAK
B1 was tested, and the “glycan array binding signal (z-score)” value [1] was -0.097, the “glycan array binding signal (z-score)” value [2] was -0.156 and the “glycan array binding signal (z-score)” value [3] was -0.114. The “glycan array binding signal (z-score)” value [4] was -0.157, the “glycan array binding signal (z-score)” value [5] was -0.208 and the “glycan array binding signal (z-score)” value [6] was -0.129. The “glycan array binding signal (z-score)” value [7] was 0.002, the “glycan array binding signal (z-score)” value [8] was 1.79 and the “glycan array binding signal (z-score)” value [9] was -0.176. The “glycan array binding signal (z-score)” value [10] was -0.167, the “glycan array binding signal (z-score)” value [11] was -0.148 and the “glycan array binding signal (z-score)” value [12] was -0.194. The “glycan array binding signal (z-score)” value [13] was -0.2, the “glycan array binding signal (z-score)” value [14] was -0.083 and the “glycan array binding signal (z-score)” value [15] was -0.169. For the same binder, the “glycan array binding signal (z-score)” value [16] was -0.029, the “glycan array binding signal (z-score)” value [17] was -0.151 and the “glycan array binding signal (z-score)” value [18] was 0.016. For the same binder, the “glycan array binding signal (z-score)” value [19] was -0.122, the “glycan array binding signal (z-score)” value [20] was -0.133 and the “glycan array binding signal (z-score)” value [21] was -0.14. The “glycan array binding signal (z-score)” value [22] was -0.161, the “glycan array binding signal (z-score)” value [23] was -0.155 and the “glycan array binding signal (z-score)” value [24] was -0.179. The “glycan array binding signal (z-score)” value [25] was -0.154, the “glycan array binding signal (z-score)” value [26] was -0.139 and the “glycan array binding signal (z-score)” value [27] was -0.233. For the same binder, the “glycan array binding signal (z-score)” value [28] was -0.177, the “glycan array binding signal (z-score)” value [29] was -0.173 and the “glycan array binding signal (z-score)” value [30] was -0.212. The “glycan array binding signal (z-score)” value [31] was -0.197.
